Reference: PubChem BioAssay AID493208 (National Center for Advancing Translational Sciences (NCATS), 2011)
Out of some 44,000 compounds screened, about 340 (0.77%) were called active. About 5% were inconclusive and are not listed. Calls follow the shape of the dose curve; as a rule, active = well fitted inhibition curve with a large enough effect; inconclusive = small, poorly fitted or top-dose-only effect; inactive = flat fitted curve, though single readings scatter. This is one part of the list.

Assay: Acumen qHTS Assay for Inhibitors of the mTORC1 Signaling Pathway in MEF (Tsc2-/-, p53-/-) Cells: Sytravon;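 also: plate controls were DMSO for no effect and rapamycin for full effect; nearly all actives have a fitted effect of over 50% in size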
Settings: phospho-rpS6 immunofluorescence/PI, 24 h; series mostly up to 38.3 µM; activity change, negative = inhibition: at the top concentration
Method in brief: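 Immunofluorescence of rpS6 phosphorylation in Tsc2-/-, p53-/- MEFs after 24 h compound exposure, normalized to propidium iodide signal. Activity is expressed as % positive cells, thresholded with 7.5 nM rapamycin.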

Q: For `Cc1cccc(C(=O)NCc2nnc(SCC(=O)Nc3ccccc3F)n2-c2ccccc2)c1`, which “activity change, negative = inhibition” value is on record?
A: The value was inactive: -0.457%.

Q: For `CCc1cccc(-n2nnc(-c3nc(-c4ccc5c(c4)OCO5)no3)c2C)c1`, which “activity change, negative = inhibition” value is on record?
A: Its value is inactive: 0.542%.

Q: Which “activity change, negative = inhibition” value does the source give for `COc1ccc(NC(=O)CSc2nc(-c3ccccc3)c3ccccc3n2)cc1` here?
A: Its value is inactive: -5.45%.

Q: For `CCOC(=O)c1cc(-c2ccc(OC)cc2)n(CCC(=O)NC2CCC(C)CC2)c1C` (stereo not drawn), which “activity change, negative = inhibition” value is on record?
A: Its value is inactive: -11.3%.

Q: With `COc1ccc(N2CCN(C(=O)Nc3ccc(Cl)cc3)CC2)cc1` as the compound, how does the “activity change, negative = inhibition” value read?
A: The value was inactive: 6.74%.

Q: For `COc1ccc(S(=O)(=O)N2CCN(C(=O)c3cc(-c4ccc(Br)cc4)n[nH]3)CC2)cc1OC`, which “activity change, negative = inhibition” value is on record?
A: The value was inactive: -10.1%.

Q: For `CCOc1ccc(NCc2cccn2-c2nnc(N3CCC(C(=O)NCCc4ccc(OCC)c(OCC)c4)CC3)s2)cc1`, which “activity change, negative = inhibition” value is on record?
A: The value was inactive: -1.3%.

Q: With `COCCn1c(C)cc(O)c(C(c2ccc(OC)cc2)N2CCCCC2)c1=O` (stereo not drawn) as the compound, how does the “activity change, negative = inhibition” value read?
A: Its value is inactive: 0%.

Q: For `CC1CN(C(=O)Nc2ccc(C(=O)NCCc3ccc(Cl)cc3)cc2)c2ccccc2S1` (stereo not drawn), which “activity change, negative = inhibition” value is on record?
A: The value was inactive: -0.016%.

Q: For `Cc1ccccc1NC(=O)CSCn1nnc2c(=O)[nH]c(Cc3ccc(F)cc3)nc21`, which “activity change, negative = inhibition” value is on record?
A: Its value is inactive: 0.382%.

Q: With `CCCC(=O)Nc1ccc2nc(SCCOc3ccccc3)sc2c1` as the compound, how does the “activity change, negative = inhibition” value read?
A: The value was inactive: -10.7%.

Q: For `CCCN1Cc2cccc(C(=O)Nc3ccccc3F)c2C1=O`, which “activity change, negative = inhibition” value is on record?
A: The value was inactive: -0.334%.

Q: With `Cn1c(C(=O)NCCc2ccccc2)cc2cc(S(=O)(=O)N3CCCCC3)ccc21` as the compound, how does the “activity change, negative = inhibition” value read?
A: Its value is inactive: 15.3%.

Q: For `Cc1cccc(NC(=O)C(=O)NCC(c2cccnc2)N2CCN(Cc3ccccc3)CC2)c1` (stereo not drawn), which “activity change, negative = inhibition” value is on record?
A: The value was inactive: 5.9%.

Q: With `COc1ccc(Cl)cc1NC(=O)c1c(NCc2cccnc2)sc2c1CCCC2` as the compound, how does the “activity change, negative = inhibition” value read?
A: Its value is inactive: -12.1%.

Q: With `CC(C)(C)OC(=O)N1CCC(c2c(C(=O)NCCc3ccsc3)cnn2-c2ccc(F)cc2F)CC1` as the compound, how does the “activity change, negative = inhibition” value read?
A: Its value is inactive: 0.273%.

Q: Which “activity change, negative = inhibition” value does the source give for `COc1ccccc1C(=O)Nc1nnc(S(=O)(=O)N2CCCCC2)s1` here?
A: Its value is inactive: 8.16%.

Q: Which “activity change, negative = inhibition” value does the source give for `CCOC(=O)c1c(Nc2ccc(OCC)cc2)nnc(-c2ccccc2)c1-c1ccccc1` here?
A: Its value is inactive: -8.65%.

Q: For `COc1ccc2ncc3c(-c4ccccc4)nn(-c4ccc(C)c(C)c4)c3c2c1`, which “activity change, negative = inhibition” value is on record?
A: Its value is inactive: -0.521%.

Q: With `COc1ccccc1NC(=O)CSc1ncc(CO)n1Cc1ccc(F)cc1` as the compound, how does the “activity change, negative = inhibition” value read?
A: Its value is inactive: 1.12%.

Q: Which “activity change, negative = inhibition” value does the source give for `Cc1ccccc1NC(=O)Cn1c(=O)n(Cc2ccco2)c(=O)c2ccc(C(=O)NC3CCCC3)cc21` here?
A: Its value is inactive: -5.86%.

Q: With `Cc1cccc(N2CCN(C(=O)C3CCN(S(=O)(=O)Cc4ccccc4)CC3)CC2)c1C` as the compound, how does the “activity change, negative = inhibition” value read?
A: The value was inactive: 3.84%.

Q: For `Cc1cc(-c2ccccc2)nc2cc(C(=O)Nc3ccc(Cl)c(Cl)c3)nn12`, which “activity change, negative = inhibition” value is on record?
A: The value was inactive: -11.5%.

Q: Which “activity change, negative = inhibition” value does the source give for `CCOC(=O)c1cnc2cc(Cl)c(OC)cc2c1Nc1ccc(Br)cc1C` here?
A: Its value is inactive: -3.03%.

Q: For `COc1ccccc1N1CCN(C(=O)C2CCN(S(=O)(=O)c3cccs3)CC2)CC1`, which “activity change, negative = inhibition” value is on record?
A: The value was inactive: -7.58%.

Q: For `COc1ccccc1C(=O)NC1(C(F)(F)F)C(=O)NC(C)=C1C#N` (stereo not drawn), which “activity change, negative = inhibition” value is on record?
A: The value was inactive: -0.512%.

Q: For `COc1cc(OC)c(NC(=O)c2nn(C)c3c2COc2ccccc2-3)cc1Cl`, which “activity change, negative = inhibition” value is on record?
A: Its value is inactive: -3.37%.

Q: Which “activity change, negative = inhibition” value does the source give for `Cc1ccccc1NC(=O)Cn1nnc(C(=O)NCc2ccco2)c1N` here?
A: The value was inactive: -21.3%.

Q: For `COc1ccc(Cn2nc3n(c2=O)-c2ccccc2OC3)cc1`, which “activity change, negative = inhibition” value is on record?
A: Its value is inactive: 3.14%.

Q: With `Cc1cccc(C(=O)Nc2nnc(S(=O)(=O)N3CCOCC3)s2)c1` as the compound, how does the “activity change, negative = inhibition” value read?
A: Its value is inactive: 3.64%.

Q: With `Cc1ccc(C)c(Cn2c(=O)n(CCc3ccccc3)c(=O)c3c(C)c(C)sc32)c1` as the compound, how does the “activity change, negative = inhibition” value read?
A: The value was inactive: -1.91%.

Q: For `O=C(Nc1ccccc1)c1cc2c(-c3ccccc3)nn(-c3ccccc3)c2s1`, which “activity change, negative = inhibition” value is on record?
A: The value was inactive: 1.08%.

Q: With `Cc1ccc(-c2nnc(Nc3cccc(Br)c3)c3ccccc23)cc1S(=O)(=O)N1CCN(C)CC1` as the compound, how does the “activity change, negative = inhibition” value read?
A: Its value is inactive: 1.85%.

Q: With `O=C(CSc1c2c(nc3ccc(Cl)cc13)CCCC2)N1CCN(c2ccc(Cl)cc2)CC1` as the compound, how does the “activity change, negative = inhibition” value read?
A: Its value is inactive: 1.46%.

Q: With `CCOc1ccc(OC(=O)c2sc3ncn(Cc4cccc(F)c4)c(=O)c3c2C)cc1` as the compound, how does the “activity change, negative = inhibition” value read?
A: The value was inactive: -6.43%.

Q: For `COc1ccc(OC)c(NC(=O)C(Cc2ccccc2)NS(=O)(=O)c2ccc3c(c2)CCC(=O)N3)c1` (stereo not drawn), which “activity change, negative = inhibition” value is on record?
A: The value was inactive: -14.2%.

Q: With `CCn1cc2nc(SCc3c(F)cccc3Cl)n(CCc3ccccc3)c(=O)c2n1` as the compound, how does the “activity change, negative = inhibition” value read?
A: The value was inactive: -3.23%.

Q: Which “activity change, negative = inhibition” value does the source give for `O=C(Nc1ccc(Br)cc1)Nc1nc2c(s1)CCCCCC2` here?
A: Its value is inactive: -0.193%.

Q: For `CCN(CC)S(=O)(=O)c1ccc2c(c1)N(CC(=O)Nc1cccc(C(C)=O)c1)C(=O)CO2`, which “activity change, negative = inhibition” value is on record?
A: The value was inactive: 5.16%.

Q: With `O=C(COCc1cc(-c2ccc3c(c2)OCO3)on1)Nc1cccc(O)c1` as the compound, how does the “activity change, negative = inhibition” value read?
A: Its value is inactive: -15.7%.

Q: With `CCC(=O)N1c2ccccc2CC1C(=O)NCCCN1CCN(c2ccc(F)cc2)CC1` (stereo not drawn) as the compound, how does the “activity change, negative = inhibition” value read?
A: The value was inactive: 0%.

Q: For `COc1ccc(Cl)cc1S(=O)(=O)Nc1ccc2c(c1)n(C)c(=O)n2C`, which “activity change, negative = inhibition” value is on record?
A: The value was inactive: -0.101%.

Q: For `COc1ccc(NC(=O)C(=O)Nc2ccc3nc4n(c(=O)c3c2)CCCCC4)c(OC)c1`, which “activity change, negative = inhibition” value is on record?
A: The value was inactive: -3.09%.

Q: For `Cc1cccc(C(=O)n2nc(-c3ccco3)nc2NCc2ccccc2)c1`, which “activity change, negative = inhibition” value is on record?
A: Its value is inactive: 1.52%.

Q: Which “activity change, negative = inhibition” value does the source give for `CCc1ccccc1NC(=O)Cn1cc(C(=O)c2ccncc2)c(=O)c2cc(C)ccc21` here?
A: Its value is inactive: 2.35%.

Q: With `O=C(CCSCCc1ccccn1)Nc1ccccc1C(F)(F)F` as the compound, how does the “activity change, negative = inhibition” value read?
A: Its value is inactive: 0.184%.

Q: For `O=C(COCc1cc(-c2ccc(F)cc2)on1)Nc1cc(Cl)cc(Cl)c1`, which “activity change, negative = inhibition” value is on record?
A: The value was inactive: 1.48%.

Q: Which “activity change, negative = inhibition” value does the source give for `Cc1ccc(-n2ncc3c(NCCc4ccccc4)ncnc32)cc1Cl` here?
A: The value was inactive: 10.9%.
